For experiment [1], the target named is T1, FLAG-tagged Fbxw4 (mouse) (UniProt Q9JMJ2).
T1 sequence: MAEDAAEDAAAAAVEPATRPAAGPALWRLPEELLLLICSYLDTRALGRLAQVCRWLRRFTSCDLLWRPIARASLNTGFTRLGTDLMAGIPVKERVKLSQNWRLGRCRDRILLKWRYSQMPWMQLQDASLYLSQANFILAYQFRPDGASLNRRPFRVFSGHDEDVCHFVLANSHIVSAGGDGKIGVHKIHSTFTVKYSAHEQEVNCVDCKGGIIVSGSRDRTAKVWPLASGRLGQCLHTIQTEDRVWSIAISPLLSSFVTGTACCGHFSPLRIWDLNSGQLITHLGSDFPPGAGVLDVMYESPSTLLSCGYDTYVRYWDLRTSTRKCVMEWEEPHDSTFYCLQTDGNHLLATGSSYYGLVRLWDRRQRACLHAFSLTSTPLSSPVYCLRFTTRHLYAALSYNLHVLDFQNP
Nature of the experiment: co-IP; 200 ug CHAPS lysate of transfected 293T cells, FLAG M2 agarose, 1 h at 4 degrees, three washes in CHAPS buffer, western blot for endogenous proteins; in Figure 4B cells with or without 25 uM MG132 for six hours. Background: Immunoblotting shows a protein as a band on a membrane.

Protein sequences, listed by entry. Tags and fused reporters are not part of them.
UniProt P61201: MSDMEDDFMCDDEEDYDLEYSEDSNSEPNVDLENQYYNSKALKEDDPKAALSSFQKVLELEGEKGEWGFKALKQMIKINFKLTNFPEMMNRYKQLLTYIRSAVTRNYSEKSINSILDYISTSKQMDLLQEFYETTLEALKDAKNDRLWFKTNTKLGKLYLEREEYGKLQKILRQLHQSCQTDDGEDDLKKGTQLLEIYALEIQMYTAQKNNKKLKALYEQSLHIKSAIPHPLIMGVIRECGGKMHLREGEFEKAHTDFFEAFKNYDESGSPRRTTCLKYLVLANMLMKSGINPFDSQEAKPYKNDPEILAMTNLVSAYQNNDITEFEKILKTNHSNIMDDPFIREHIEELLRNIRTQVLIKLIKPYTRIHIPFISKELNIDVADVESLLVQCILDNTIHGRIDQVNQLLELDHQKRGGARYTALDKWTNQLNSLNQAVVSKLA
UniProt Q92905: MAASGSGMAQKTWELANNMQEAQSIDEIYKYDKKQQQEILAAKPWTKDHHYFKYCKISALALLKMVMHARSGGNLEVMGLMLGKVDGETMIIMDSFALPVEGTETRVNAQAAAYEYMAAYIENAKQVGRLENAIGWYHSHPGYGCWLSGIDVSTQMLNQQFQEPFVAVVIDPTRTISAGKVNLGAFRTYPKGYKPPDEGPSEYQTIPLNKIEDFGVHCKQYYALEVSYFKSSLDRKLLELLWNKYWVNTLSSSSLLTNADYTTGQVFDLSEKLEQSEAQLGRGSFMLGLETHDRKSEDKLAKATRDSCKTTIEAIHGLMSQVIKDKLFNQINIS
UniProt P63208: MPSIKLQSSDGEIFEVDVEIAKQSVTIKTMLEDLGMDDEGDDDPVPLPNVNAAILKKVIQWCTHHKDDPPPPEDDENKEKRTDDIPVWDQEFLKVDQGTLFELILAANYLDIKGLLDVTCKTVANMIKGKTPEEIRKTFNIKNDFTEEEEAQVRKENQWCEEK

The target in experiment [2] is T2, FLAG-tagged Fbxo46 (mouse) (UniProt Q8BG80).
T2 sequence: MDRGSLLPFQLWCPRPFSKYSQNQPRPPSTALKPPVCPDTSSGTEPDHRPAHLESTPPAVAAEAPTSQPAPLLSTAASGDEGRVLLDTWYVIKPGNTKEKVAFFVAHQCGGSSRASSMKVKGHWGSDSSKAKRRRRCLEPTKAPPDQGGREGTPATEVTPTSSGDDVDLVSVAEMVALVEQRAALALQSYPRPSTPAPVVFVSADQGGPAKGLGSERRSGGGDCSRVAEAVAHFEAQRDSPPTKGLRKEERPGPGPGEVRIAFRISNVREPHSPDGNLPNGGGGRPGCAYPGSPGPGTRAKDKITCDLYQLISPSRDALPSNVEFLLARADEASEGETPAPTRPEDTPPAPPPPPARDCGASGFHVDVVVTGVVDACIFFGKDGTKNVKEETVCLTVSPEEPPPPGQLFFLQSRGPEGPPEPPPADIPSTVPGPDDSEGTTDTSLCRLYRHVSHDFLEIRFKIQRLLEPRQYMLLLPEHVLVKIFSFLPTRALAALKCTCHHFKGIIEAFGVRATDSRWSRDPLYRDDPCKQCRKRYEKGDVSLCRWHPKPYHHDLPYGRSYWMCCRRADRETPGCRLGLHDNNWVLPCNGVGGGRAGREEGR
Described as above.

The target of experiment [3] is T1, FLAG-tagged Fbxw4 (mouse). Kind of experiment: SEC; lysates of 293T cells transfected with empty vector or FLAG-Fbxw4 separated on a Superose 6 gel filtration column; every other fraction western blotted for Fbxw4 and SKP1. (Size exclusion chromatography separates by hydrodynamic size, large species first.)
The target of another experiment is T3, FLAG-Fbxw4^−fbox (mouse) (UniProt Q9JMJ2).
T3 sequence: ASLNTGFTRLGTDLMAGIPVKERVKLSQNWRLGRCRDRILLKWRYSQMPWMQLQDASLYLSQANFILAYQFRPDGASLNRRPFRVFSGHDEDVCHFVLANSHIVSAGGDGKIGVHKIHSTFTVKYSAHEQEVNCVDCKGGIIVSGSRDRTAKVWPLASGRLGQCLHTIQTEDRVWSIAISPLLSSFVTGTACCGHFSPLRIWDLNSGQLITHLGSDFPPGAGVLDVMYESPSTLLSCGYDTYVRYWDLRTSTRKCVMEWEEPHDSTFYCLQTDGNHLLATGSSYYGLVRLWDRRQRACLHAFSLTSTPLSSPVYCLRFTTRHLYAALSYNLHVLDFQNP
Nature of the experiment: co-IP; 200 ug CHAPS lysate of transfected 293T cells, FLAG M2 agarose, 1 h at 4 degrees, three washes in CHAPS buffer, western blot for endogenous proteins; in Figure 4B cells with or without 25 uM MG132 for six hours.

No constants are given. Whether binding was seen depends on the method and setting. For some assays here: In cells and extracts the contact can be indirect. Some results given as binding are weak or reduced against the parent protein; the word gives no strength. Where a sequence is shown, tags or fusion partners need not be part of it.

For the substance COPS2 (from UniProt P61201 1-443), the binding result in experiment [1] is “binds”; in experiment [2] it was “no binding”.
For the substance COPS5 (from UniProt Q92905 1-334), the results for the binding result in experiment [1] and in experiment [2] were “binds” and “no binding”, respectively.
Consider SKP1 (from UniProt P63208 1-163), for which the binding entry was “binds” in experiment [3], “binds” in experiment [1], “binds” in experiment [2] and “no binding” in the experiment with FLAG-Fbxw4^−fbox (mouse).

(Values after article PMC3642104.)
